# Reference: PMC4336329 (PLoS ONE, 2015)
# About 14,000 (4.5%) of roughly 310,000 compounds showed an effect of 50% or more. Effects have a minus sign here. Some of the results follow.
# Biological target: human ether-à-go-go-related gene (hERG) potassium channel (human, UniProt Q12809)
# Assay: primary screen, population patch clamp on CHO cells stably expressing hERG
# 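Also: peak tail current of the secondary pulse compared with the same well before compound.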
# human ether-à-go-go-related gene (hERG) potassium channel, sequence (Q12809 whole entry, looked up): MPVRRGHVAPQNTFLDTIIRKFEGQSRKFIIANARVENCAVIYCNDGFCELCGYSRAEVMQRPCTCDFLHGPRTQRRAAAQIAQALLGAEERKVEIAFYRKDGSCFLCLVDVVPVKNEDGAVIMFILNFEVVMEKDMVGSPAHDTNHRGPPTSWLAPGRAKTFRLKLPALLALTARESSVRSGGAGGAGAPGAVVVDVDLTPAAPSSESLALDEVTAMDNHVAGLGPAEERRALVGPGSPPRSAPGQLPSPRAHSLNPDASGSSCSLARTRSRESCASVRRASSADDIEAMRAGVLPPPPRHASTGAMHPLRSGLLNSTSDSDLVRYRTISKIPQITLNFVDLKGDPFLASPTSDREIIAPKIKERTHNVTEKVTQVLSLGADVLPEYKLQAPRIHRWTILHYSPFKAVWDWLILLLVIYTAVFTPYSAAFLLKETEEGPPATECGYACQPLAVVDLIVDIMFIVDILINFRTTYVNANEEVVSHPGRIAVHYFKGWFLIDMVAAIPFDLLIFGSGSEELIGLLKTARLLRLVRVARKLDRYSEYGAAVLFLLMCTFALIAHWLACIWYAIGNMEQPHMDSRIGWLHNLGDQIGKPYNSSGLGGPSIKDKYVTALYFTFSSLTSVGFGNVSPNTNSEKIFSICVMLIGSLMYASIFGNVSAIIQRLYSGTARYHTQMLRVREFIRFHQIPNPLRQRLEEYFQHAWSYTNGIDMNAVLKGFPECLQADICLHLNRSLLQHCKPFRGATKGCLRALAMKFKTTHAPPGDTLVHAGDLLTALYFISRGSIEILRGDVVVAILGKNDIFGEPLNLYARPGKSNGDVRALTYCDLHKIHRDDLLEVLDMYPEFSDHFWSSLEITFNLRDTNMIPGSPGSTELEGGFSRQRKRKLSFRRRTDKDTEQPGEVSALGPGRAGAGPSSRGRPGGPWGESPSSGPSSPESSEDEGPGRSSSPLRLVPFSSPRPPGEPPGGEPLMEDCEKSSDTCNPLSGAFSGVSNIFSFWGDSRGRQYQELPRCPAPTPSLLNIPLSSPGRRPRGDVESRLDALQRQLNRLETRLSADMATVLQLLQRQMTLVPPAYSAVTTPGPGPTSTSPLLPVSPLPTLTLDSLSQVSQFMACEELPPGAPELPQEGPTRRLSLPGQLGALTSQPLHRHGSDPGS
row,Structure (SMILES),"hERG current change (%, negative = inhibition) at 10uM"
1,CCCN(CC(=O)Nc1ccccc1OC)C(=O)CCC(=O)c1ccc(F)cc1,-13.3%
2,COc1ccc(-c2nn(C)c3sc(C(=O)NCCN(C)C)cc23)cc1OC,15.4%
3,CN(C(=O)CC(=O)Nc1ccc(Cl)c(Cl)c1)c1ccccc1,-22.2%
4,CCn1cc(C(=O)NC(C)C)c(=O)c2cc(F)c(N3CCN(C(=O)c4ccco4)CC3)cc21,-34.6%
5,Cc1ccc(S(=O)(=O)N(C)c2ccc(C)c([N+](=O)[O-])c2)cc1,-15.7%
6,CCCNC(=O)N1[C@H]2CC[C@@H]1C(C(=O)OC)=C(c1ccc(Cl)c(C(F)(F)F)c1)C2,-11.4%
7,COc1cc(OC)cc(-c2sc3ccc(OC)cc3c2C#CCCO)c1,10.5%
8,O=C1Nc2ccccc2C(O)(C(=O)NCc2ccco2)N1c1ccc(Cl)c(Cl)c1 (centres unmarked),-15.3%
9,CCOc1ccc2oc(C(=O)NCC(C)(C)CN(C)C)c(C)c2c1.Cl,-54.5%
10,COc1ccccc1NC(=O)c1ccc2c(c1)C(=O)N(Cc1ccco1)C2=O,9.96%
11,Cc1ccccc1NC(=O)Cc1nc(COC(=O)c2cc(Cl)ccc2O)cs1,15.3%
12,COc1cc(/C=C(/C#N)C(=O)NCc2ccccc2)cc(OC)c1OC,-24%
13,COc1cccc(OC)c1OCCN1CCN(C(=O)c2ccco2)CC1.Cl,-16.2%
14,COc1cc(NC(=O)CC2NCCNC2=O)cc(OC)c1 (centres unmarked),19.2%
15,O=C(Nc1cc(=O)[nH]c2ncnn12)c1ccc(Cl)cc1Cl,-9.89%
16,CSc1nnc2c3ccccc3n(Cc3ccccc3)c2n1,25.8%
17,Cc1ccc(NC(=S)NCCN2CCOCC2)cc1C,-5.31%
18,Cc1ccc(C)c(NC(=O)COC(=O)c2ccc3c(c2)OCO3)c1,22.8%
19,CN(C)c1cccc2c(S(=O)(=O)N3CCOCC3)cccc12,-5.82%

row,Structure (SMILES),"hERG current change (%, negative = inhibition) at 10uM"
1,CCCn1nc(NS(=O)(=O)c2cccc3nonc23)c2cc3cccc(C)c3nc21,-10.7%
2,O=C(CN1C(=O)S/C(=C/c2cccnc2)C1=O)N1CCOCC1,8.12%
3,CCc1sc(C(=O)Nc2ncccc2O)cc1C,-2.28%
4,N#CCCCn1c(=O)oc2ccccc21,3.97%
5,CC1CC(C)CN(C(=O)CSc2nnc(CSc3ncccn3)n2C)C1 (centres unmarked),3.88%
6,Cc1cc(NC(=O)CSCC(=O)N2CCN(c3cccc(C)c3C)CC2)no1,-27.7%
7,CCC(Oc1ccc(C)cc1)C(=O)Nc1ccc2c(c1)n(C)c(=O)n2C (centres unmarked),5.6%
8,CC1CC(C)CN(C(=O)c2ccc(S(=O)(=O)N3CCCCC3)cc2)C1 (centres unmarked),9.86%
9,COc1ccccc1COc1ccc2c(C)c(CCC(=O)O)c(=O)oc2c1C,18.1%
10,COc1ccc(CC(=O)N/N=C/c2cccnc2)cc1OC,11.7%
11,COc1cc(NS(=O)(=O)c2ccc(N/C=C(\C=O)c3nc4ccccc4o3)cc2)nc(OC)n1,8.85%
12,O=C(NCc1ccc(F)cc1)C(c1ccco1)N(C(=O)c1csnn1)C1CC1 (centres unmarked),0.323%
13,COCCCN1C(=O)c2[nH]nc(-c3cc(C)cc(C)c3O)c2C1c1ccc(O)c(OC)c1 (centres unmarked),-10.3%
14,O=C(NCc1ccccc1)c1ccc(S(=O)(=O)NCc2ccco2)cc1,-11.3%
15,N#Cc1c(OCC(=O)c2ccccc2)nc2c(c1-c1ccco1)CCc1ccccc1-2,-1.51%
16,CCN(CC)C(=O)CSc1nc2cc3c(cc2c(=O)n1CCCC(=O)NCCc1ccc(OC)c(OC)c1)OCO3,-8.7%
17,CC(OC(=O)c1ccc2ncsc2c1)C(=O)N(C)C1CCCCC1 (centres unmarked),5.34%
18,Cc1ccc(C(=O)NCCc2cc3ccc(C)c(C)c3[nH]c2=O)cc1[N+](=O)[O-],-15.6%
19,COC(=O)c1sccc1NC(=O)c1ccc(C)cc1,18.9%

row,Structure (SMILES),"hERG current change (%, negative = inhibition) at 10uM"
1,CCC(Oc1ccccc1)C(=O)Nc1cc(C(F)(F)F)ccc1N1CCOCC1 (centres unmarked),13.4%
2,Cc1[nH]ccc(=O)c1OCC(=O)O,17.8%
3,CCOc1ccc(S(=O)(=O)N2CCC(C(=O)OC(C)C(=O)NC3CCCCC3C)CC2)cc1 (centres unmarked),-14.6%
4,Cc1[nH]c2ccccc2c1CN1CCN(c2ccccn2)CC1,-52.7%
5,O=C1CCCC(O)=C1C=Nc1ccc(O)cc1,14.6%
6,COc1ccc2c(c1)cc1c(=O)n(CC(=O)NCCCN3CCOCC3)nc(C)n12,8.95%
7,Cl.N=c1ccn(Cc2ccccc2Cl)cc1,13.1%
8,O=[N+]([O-])c1ccc(OCc2cnc(Cl)s2)c([N+](=O)[O-])c1,-25.7%
9,Cc1ccnc2nc(C(=O)Nc3nnc(CC(C)C)s3)nn12,3.42%
10,O=C(O)c1ccccc1Nc1ccccc1,21.7%
11,Cc1ccc(S(=O)(=O)ON=C2CCN(S(=O)(=O)c3ccccc3)CC2)cc1,19%
12,Nc1nc(SCC(=O)NCc2ccc(F)cc2)[nH]c(=O)c1NC(=O)c1ccc(Cl)cc1,5.38%
13,COC(=O)C1=C(NC(=O)c2ccc(Br)cc2)CCS1,27.4%
14,Cc1ccc(NC(=O)CNc2ccc(N3CCOCC3)cc2)cc1S(=O)(=O)N(C)C,-30.8%
15,Cc1ccc(N2CC(C(=O)N3CCC4(CC3)CC(=O)c3ccccc3O4)CC2=O)cc1C (centres unmarked),-71.3%
16,S=c1[nH]nc(-c2cc(-c3ccccc3)n[nH]2)n1/N=C/c1cccs1,24.2%
17,COc1cccc(OCC(=O)NNC(=O)c2ccc3ccccc3c2)c1,27.4%
18,CCN(CC)c1ccc(/C=N/NC(=O)C2CC2)cc1,-14.2%
